{"source": "the supplement of paper PMC12632987", "binders": {"B1": {"name": "GBRAP_57_6459 (protein)", "chain": "MSKLEKIEAAAERVKALIEAGAPREEIEAAVRELLALLSKEVLLDTLLILDPSTRADLSLEELRERLLALIMRLLEEEGPEAAIRAIDLLVGQAEAEVEE"}, "B2": {"name": "GBRAP_43_5792 (protein)", "chain": "MKEIVEGALDFARTALETPEITDETKARIVVDAVEFAADEGLLTKEELKELLELLEESVSLEVAIEALEKIKEILKKLGAPQELIDVVEEALERVKKKAA"}, "B3": {"name": "GBRAP_160_4731 (protein)", "chain": "SARIEEFAKEAEEIFLKAVEDSKDESKEEAAALFRGAAGEVLMDVMSDPRFTDEQEDAAAEILDELVKELEANFDASEEEKKKIVKEKIEKLLKELKAIK"}, "B4": {"name": "GBRAP_128_3434 (protein)", "chain": "SEEEKLEEAFKLIEEILKASVEEVYKLTKELLELFGTLSEENAEKVADYLISKIPELTKEQLEALAEAMREKRPELDEYHANLVNEVEVEALNEILELEE"}, "B5": {"name": "GBRAP_125_3054 (protein)", "chain": "NLEEAIEALAELGKILGLSEEEVEELRKLAEKYGVKGTLYALLLAEGEEELAELVAKLTEEEVIEVLKRLLEYIKSHPNITKEEALEKLKELAEEALAKK"}, "B6": {"name": "GBRAP_74_6571 (protein)", "chain": "MEKYTKEMKAAAAAGDVKKAIKIVEEMIEKGIKKVSAEFLNALATIAEKHLPKATPEEQERFIDAASELVDLVLESEQDEETYKALNKLITALYEAELAR"}, "B7": {"name": "GBRAP_128_3427 (protein)", "chain": "STAAKVAEVEALLEAMLTADAAEAAALARRIAALMLASDLETVEAMVEVILSMLPKFTAEQLEILADALREARPEFTPEKQLLVSEVEVAALNEAEEKEE"}, "B8": {"name": "GBRAP_160_4283 (protein)", "chain": "SEEAEKLKEEVREIAEETIAMMEGETQANRVTIVRVAGGEVALALLESEEVTDETVDKALEIWDELAAYIAAHPDLTQEELAELVREAEEKIKEEIEKEA"}, "B9": {"name": "GBRAP_52_6373 (protein)", "chain": "MEERARELARRILELAEAGDEEGLREEVRRIVEEESDELIAAVLRELRDMILTEPGLDPEALLTAAATLASEVLEAEKGTPETWAALTELLAAALALEQA"}, "B10": {"name": "GBRAP_139_3726 (protein)", "chain": "SAEEEKIKEVVELAKKSIEEGYKYVSEVADKLNSMSLETAEKALEAIAEAAKEFSFDDVEAFFDKLIKEIKEKHKNEDLAELAEAARNRALAAVAVREEA"}, "B11": {"name": "GBRAP_166_4960 (protein)", "chain": "AVEEARAEVEALLARFEAEGPRLSEEERREMVLEIAEALGRLREAGAPEEEILELATRLIILATRAGLPVSFVEAALVNIAGLPIDLVDKAVALAEKRLA"}, "B12": {"name": "GBRAP_160_4044 (protein)", "chain": "KEKYEKLEKETKEIFEEAKELIEGQSAEEAAVIAAVAIGEIILKAEELGVDDEELLEKIDKVGDELVATLLANPDLTEEEIKALLEKAEEEILKAIKEAK"}, "B13": {"name": "GBRAP_128_3325 (protein)", "chain": "MNEERIKEAEEIIKEIVKADVEEAKKLTEELLKLMETMTDEERDIVVEIMEKELEKLDAEKLDAIADTIRELQPTLDPLTARYAAEIEVEALNLAEEKEE"}, "B14": {"name": "GBRAP_14_3800 (protein)", "chain": "MEERKKAINDIADETLEILEEILADAPEEVRERVLALVEEARDRIIEENLTPDEVDELRDELLAEVAEILADAPADVRAQVLAAIDVGFGEIIIEIEELE"}, "B15": {"name": "GBRAP_64_6485 (protein)", "chain": "MEEIEELHEETLEKAKELVELLKDSSEELQEQAEEVLELIEESKEASLEEAADLLAEAAKLLNEILKSPELTEEQRDQVAELLDLVSELLWLVVEEELKK"}, "B16": {"name": "GBRAP_117_2584 (protein)", "chain": "SETEEKVEEIAEEMVELVKETVAKMKEASPEEAEKLRAETEKEVKEKVKEMIELTTREKVLEVLEEESRDLDAEAYFFLFNAAEEAFEEVEEEEREEEEE"}, "B17": {"name": "GBRAP_52_6081 (protein)", "chain": "MKEKIEAIAEAIVEAIAAGDLDGALALMREAIETLSVEEIKEMLVLAAKKVAALGEEQHERFVEALDRVYDLLLEAGISEEDALLIVGDAEAALAKEVAA"}, "B18": {"name": "GBRAP_128_3508 (protein)", "chain": "SMEEVVAKVKELMEKIKEADEETAAELTEEIVELLNSVSLETAEAAVEVILEMLPKLSKEKLLVLADTLEKKRPEVSPEVANLVADIAVEALNEAEEKEE"}, "B19": {"name": "GBRAP_52_6376 (protein)", "chain": "AVEEAARLLRAALEKIIAGGPREEVEALAKEIVKFSEEVIEEAARLVAEEILKLSPEEAEAYLDAAFELADILEEEGLDENIASLIEAEIGKAAYEVSQR"}, "B20": {"name": "GBRAP_128_3489 (protein)", "chain": "ADPEKVERAKRLVREAAESDLETARRLAEEIVELLAESDPETREAIVEAIEEEAPKLSPEHLEVMMDVFDERAPEADPETRQAINDVRVVLGAELLEKEE"}, "B21": {"name": "GBRAP_137_3614 (protein)", "chain": "KTVTITFSEEDGVAIAEIEADESVDQEKLLELIEEVAKKHGVKLVIAQSEDENDITYYLVGTPEKIIAAVKDLIKRLKEELGAEVVLESDGAEELVEKVK"}, "B22": {"name": "GBRAP_160_4323 (protein)", "chain": "EEELEKLEKEIEEIAEEAKEMIEGESAAERITIARVALGEIILEVEENPAVSDELEEQVAKIADAAEATLRANPDLSEEEVKALLEAATKEILELIRKEK"}, "B23": {"name": "GBRAP_11_2721 (protein)", "chain": "KAEKLKALAEKAEALAEKVEKLIKEGPKKEEIKKLAEEVEKLREEAKKIGASEDVLKTLDIAAENLKKAIEDPSNVEEHLKNAAAALRVAAGQLLLEAEE"}, "B24": {"name": "GBRAP_45_5811 (protein)", "chain": "SEELKETREKLEELLKKAKELAEKLKEEDPEKFTPLLELLEEAEKLLKEEPESLEAWERIEELLEEALKLALDSKKASAELLETLLEAANLALEAKELLE"}, "B25": {"name": "GBRAP_128_3379 (protein)", "chain": "MDEEKLERVRELVRRAIESDVEETRELTREVVRLMGTLSPEEREAAAEIVIEALPEFSREKLDAIADTIRELRPELDPLGQELAAEVEVAALNRAEELEE"}, "B26": {"name": "GBRAP_160_4678 (protein)", "chain": "MEEAEELIKEIREEAEEALEMMEGESLEERVAVLRVLTGDIILLLEESPLATDEVIDLADELGDELIAYVRAHPDLTPEELRARLEEVTKKIEEALKESL"}, "B27": {"name": "GBRAP_83_6986 (protein)", "chain": "AEKIVVAAPGDRIEEMVDIVIDLTKEEGYDVSVEILTTKEEWEKVLEAVRRLGEAGIETEITVLVEGATEEEAKEMKEELEEIAKELGVNFKIEVEVLEP"}, "B28": {"name": "GBRAP_150_3936 (protein)", "chain": "DLEELLLLADSVADDLTLALEEGVDRLRALERALELLEDIEEEADPELKKIAREARELVEEAIKLLRAGGPQEEIDKLLREALKLAEELAKELEKKIEEE"}, "B29": {"name": "GBRAP_137_3649 (protein)", "chain": "PNVTIRVKTEGDLVLIEIEFDDPEKAEEVKELILDVAHEHGALAVSVEIKEDGTLEAEIWVPKDKAQALIDALVERLRKELGANVTVIDEDTGEVKEYKA"}}, "note": "Over roughly 4,500 sequences, “median log2 fold change of GCK-ALFA target abundance (FLAG IP / Myc IP barcode read proportion)” has its median near 0.078; the lowest 2% begin near -0.6. The list shows a part of the results.", "data": [{"target": "GABARAP, O95166", "sequence (O95166 whole entry, the tested form may be a part)": "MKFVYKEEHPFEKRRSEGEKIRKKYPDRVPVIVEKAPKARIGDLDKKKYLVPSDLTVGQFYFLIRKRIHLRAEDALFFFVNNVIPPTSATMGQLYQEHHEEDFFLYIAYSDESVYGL", "test": "median log2 fold change of GCK-ALFA target abundance (FLAG IP / Myc IP barcode read proportion) (log2 ratio); each designed protein is fused to an ALFA-tag nanobody in HEK293 cells to bring the named protein to FLAG-tagged glucokinase (GCK); Myc marks an untargeted standard; higher = target protein stabilised (more abundant)", "details": "target protein: 3xFLAG-MCP-GCK-ALFA reporter; HEK293 landing pad (RPLP)", "method_in_brief": "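HEK293 landing-pad cells received a recombined binder library fused to the ALFA nanobody and were induced with 2 μg mL^−1 doxycycline, then transfected with a plasmid encoding a FLAG-tagged target and a Myc-tagged standard. Lysates were collected after 48 h for anti-FLAG and anti-Myc immunoprecipitation, and the circular RNA barcodes were reverse transcribed, amplified and sequenced. Target abundance for each binder is the median log2 ratio of FLAG to Myc barcode read proportions. Barcodes had to reach a proportion of at least 10^−7 in both replicates, each binder needed at least 3 barcodes per replicate, a pseudocount of 10^−6 was applied, and the two replicates were pooled.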", "values": [{"binder": "B1", "median log2 fold change": 0.269}, {"binder": "B2", "median log2 fold change": 0.0287}, {"binder": "B3", "median log2 fold change": 0.211}, {"binder": "B4", "median log2 fold change": 0.000172}, {"binder": "B5", "median log2 fold change": -1.42}, {"binder": "B6", "median log2 fold change": -0.298}, {"binder": "B7", "median log2 fold change": 0.18}, {"binder": "B8", "median log2 fold change": -0.154}, {"binder": "B9", "median log2 fold change": -0.998}, {"binder": "B10", "median log2 fold change": 0.171}, {"binder": "B11", "median log2 fold change": 0.265}, {"binder": "B12", "median log2 fold change": -0.219}, {"binder": "B13", "median log2 fold change": 0.156}, {"binder": "B14", "median log2 fold change": -0.397}, {"binder": "B15", "median log2 fold change": -0.204}, {"binder": "B16", "median log2 fold change": 0.237}, {"binder": "B17", "median log2 fold change": -0.308}, {"binder": "B18", "median log2 fold change": 0.191}, {"binder": "B19", "median log2 fold change": -0.084}, {"binder": "B20", "median log2 fold change": 0.203}, {"binder": "B21", "median log2 fold change": -0.301}, {"binder": "B22", "median log2 fold change": -0.00831}, {"binder": "B23", "median log2 fold change": 0.0939}, {"binder": "B24", "median log2 fold change": 0.129}, {"binder": "B25", "median log2 fold change": 0.284}, {"binder": "B26", "median log2 fold change": -0.351}, {"binder": "B27", "median log2 fold change": -0.0425}, {"binder": "B28", "median log2 fold change": -0.148}, {"binder": "B29", "median log2 fold change": 0.165}]}]}
